Measurements published in the supplement of paper PMC4967469.
Lines with a small IC50 respond at low doses; a limit (>, <) means that the fit lies beyond the doses tested. For AUC the same curve is integrated over the 256-fold range of doses and scaled to a fraction; it is 1 without any effect and falls as sensitivity rises. For part of these data: An inferred top dose was calculated from the reported fits.

Assays:
Assay in all cases: Viability of human cancer cell lines after 72 h of drug (GDSC screen)
[1] = compound: COc1cc(Nc2c(C#N)cnc3cc(OCCCN4CCN(C)CC4)c(OC)cc23)c(Cl)cc1Cl [Bosutinib]; conditions: top dose 2 µM
Protocol: (§1)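 Human cancer cell lines in 384-well plates, medium with 10% serum, drug for 72 h over a 256-fold dose range (nine 2-fold or five 4-fold steps up to the top dose). Adherent lines were fixed and stained with the nucleic acid dye Syto60, suspension lines read with resazurin; signal relative to control wells, capped at 0 and 100%. One two-parameter sigmoid per drug and line, fitted in a mixed model over all curves with the slope shared within a line.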

[2] = compound: CO[C@@]12[C@H](COC(N)=O)C3=C(C(=O)C(C)=C(N)C3=O)N1C[C@@H]1N[C@@H]12 [Mitomycin C]; conditions: top dose 16 µM
Protocol: as §1

[3] = compound: Cc1ccc(C(=O)Nc2cccc(C(F)(F)F)c2)cc1Nc1nc(-c2cccnc2)nc2c1cnn2C [NVP-BHG712]; conditions: top dose 10.24 µM; top dose inferred
Protocol: as §1

[4] = compound: O=C(O)CNC(=O)c1c(O)c2ccccc2n(Cc2ccccc2)c1=O [IOX2]; conditions: top dose 0.1 µM; top dose inferred
Protocol: as §1

[5] = compound: CC[C@H](CO)Nc1nc(NCc2ccccc2)c2ncn(C(C)C)c2n1 [Roscovitine]; conditions: top dose 16 µM; top dose inferred
Protocol: as §1

[6] = compound: CO[C@@H]1[C@H](N(C)C(=O)c2ccccc2)C[C@H]2O[C@]1(C)n1c3ccccc3c3c4c(c5c6ccccc6n2c5c31)C(=O)NC4 [Midostaurin]; conditions: top dose 0.512 µM; top dose inferred
Protocol: as §1

Cell Line | AUC [1] | IC50 [1] | AUC [2] | IC50 [2] | AUC [3] | IC50 [3] | AUC [4] | IC50 [4] | AUC [5] | IC50 [5] | AUC [6] | IC50 [6]
NALM-6 (B-cell leukaemia, suspension) | 0.933 | > 2000 nM | 0.039 | < 62.5 nM | 0.615 | 1250 nM | 0.989 | > 100 nM | 0.933 | > 16000 nM | 0.714 | 114 nM
LS-411N (large intestine, adherent) | 0.969 | > 2000 nM | 0.346 | 339 nM | 0.815 | 7270 nM | 0.978 | > 100 nM | 0.921 | > 16000 nM | 0.923 | > 512 nM
LU-65 (large cell lung carcinoma, suspension) | 0.987 | > 2000 nM | 0.533 | 1250 nM | 0.91 | > 10200 nM | 0.985 | > 100 nM | 0.958 | > 16000 nM | 0.975 | > 512 nM
WIL2-NS (lymphoid neoplasm, suspension) | 0.977 | > 2000 nM | 0.098 | 71.6 nM | 0.816 | 4390 nM | 0.992 | > 100 nM | 0.919 | > 16000 nM | 0.96 | > 512 nM
MSTO-211H (mesothelioma, adherent) | 0.855 | 1360 nM | 0.658 | 2620 nM | 0.991 | > 10200 nM | 0.951 | > 100 nM | 0.989 | > 16000 nM | 0.991 | > 512 nM
NTERA-2 cl.D1 (testis, adherent) | 0.971 | > 2000 nM | 0.028 | < 62.5 nM | 0.909 | > 10200 nM | 0.984 | > 100 nM | 0.88 | > 16000 nM | 0.756 | 174 nM
KELLY (neuroblastoma, adherent) | 0.945 | > 2000 nM | 0.424 | 634 nM | 0.877 | 8660 nM | 0.988 | > 100 nM | 0.956 | > 16000 nM | 0.969 | > 512 nM
MPP-89 (mesothelioma, adherent) | 0.967 | > 2000 nM | 0.482 | 878 nM | 0.948 | > 10200 nM | 0.977 | > 100 nM | 0.924 | > 16000 nM | 0.84 | > 512 nM
L-540 (Hodgkin lymphoma, suspension) | 0.84 | 1160 nM | 0.207 | 155 nM | 0.931 | > 10200 nM | 0.982 | > 100 nM | 0.955 | > 16000 nM | 0.867 | 377 nM
LC4-1 (lymphoblastic leukaemia, suspension) | 0.971 | > 2000 nM | 0.504 | 1030 nM | 0.867 | > 10200 nM | 0.983 | > 100 nM | 0.917 | > 16000 nM | 0.938 | > 512 nM
ST486 (Burkitt lymphoma, suspension) | 0.813 | 930 nM | 0.386 | 505 nM | 0.779 | 3690 nM | 0.989 | > 100 nM | 0.81 | 7280 nM | 0.861 | 356 nM
D-542MG (glioma, adherent) | 0.984 | > 2000 nM | 0.466 | 790 nM | 0.931 | > 10200 nM | 0.98 | > 100 nM | 0.884 | > 16000 nM | 0.975 | > 512 nM
COR-L88 (small cell lung carcinoma, adherent) | 0.98 | > 2000 nM | 0.345 | 340 nM | 0.955 | > 10200 nM | 0.984 | > 100 nM | 0.984 | > 16000 nM | 0.964 | > 512 nM
NAMALWA (Burkitt lymphoma, suspension) | 0.943 | > 2000 nM | 0.21 | 169 nM | 0.51 | 680 nM | 0.986 | > 100 nM | 0.939 | > 16000 nM | 0.981 | > 512 nM
EW-18 (Ewing sarcoma, suspension) | 0.938 | > 2000 nM | 0.578 | 1660 nM | 0.864 | 10000 nM | 0.979 | > 100 nM | 0.984 | > 16000 nM | 0.848 | 422 nM
RPMI-6666 (Hodgkin lymphoma, suspension) | 0.865 | > 2000 nM | 0.292 | 227 nM | 0.554 | 923 nM | 0.976 | > 100 nM | 0.875 | > 16000 nM | 0.917 | > 512 nM
NCI-SNU-1 (stomach, suspension) | 0.987 | > 2000 nM | 0.214 | 140 nM | 0.657 | 1770 nM | 0.987 | > 100 nM | 0.922 | > 16000 nM | 0.964 | > 512 nM
SK-N-DZ (neuroblastoma, adherent) | 0.892 | > 2000 nM | 0.635 | 2340 nM | 0.955 | > 10200 nM | 0.986 | > 100 nM | 0.973 | > 16000 nM | 0.955 | > 512 nM
SK-LMS-1 (soft tissue, adherent) | 0.756 | 652 nM | 0.386 | 494 nM | 0.856 | 7630 nM | 0.974 | > 100 nM | 0.987 | > 16000 nM | 0.857 | 384 nM
NCI-SNU-5 (stomach, suspension) | 0.979 | > 2000 nM | 0.242 | 178 nM | 0.989 | > 10200 nM | 0.979 | > 100 nM | 0.964 | > 16000 nM | 0.982 | > 512 nM
EB2 (Burkitt lymphoma, suspension) | 0.99 | > 2000 nM | 0.201 | 146 nM | 0.644 | 1540 nM | 0.983 | > 100 nM | 0.986 | > 16000 nM | 0.957 | > 512 nM
